# Measurements published in article PMC12711579.
# No constants are given. Whether binding was seen depends on the method and setting. Some results given as binding are weak or reduced against the parent protein; the word gives no strength.
# T1: PCH2 (A. thaliana), Q8H1F9
# T1 chain: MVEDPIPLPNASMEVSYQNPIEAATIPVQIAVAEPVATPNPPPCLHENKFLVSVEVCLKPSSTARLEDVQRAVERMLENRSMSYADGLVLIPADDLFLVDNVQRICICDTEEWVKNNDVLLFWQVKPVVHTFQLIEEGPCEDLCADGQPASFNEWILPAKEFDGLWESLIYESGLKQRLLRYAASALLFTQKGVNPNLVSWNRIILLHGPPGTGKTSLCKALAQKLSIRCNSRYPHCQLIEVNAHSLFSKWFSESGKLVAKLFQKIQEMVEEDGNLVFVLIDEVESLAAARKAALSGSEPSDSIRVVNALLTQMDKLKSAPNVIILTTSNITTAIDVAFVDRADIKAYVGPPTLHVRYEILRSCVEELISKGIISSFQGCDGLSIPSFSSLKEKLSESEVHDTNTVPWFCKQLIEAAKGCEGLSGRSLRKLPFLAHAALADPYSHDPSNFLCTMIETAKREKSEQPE
# T2: ZYP1b (A. thaliana) (UniProt P61430)
# T2 sequence: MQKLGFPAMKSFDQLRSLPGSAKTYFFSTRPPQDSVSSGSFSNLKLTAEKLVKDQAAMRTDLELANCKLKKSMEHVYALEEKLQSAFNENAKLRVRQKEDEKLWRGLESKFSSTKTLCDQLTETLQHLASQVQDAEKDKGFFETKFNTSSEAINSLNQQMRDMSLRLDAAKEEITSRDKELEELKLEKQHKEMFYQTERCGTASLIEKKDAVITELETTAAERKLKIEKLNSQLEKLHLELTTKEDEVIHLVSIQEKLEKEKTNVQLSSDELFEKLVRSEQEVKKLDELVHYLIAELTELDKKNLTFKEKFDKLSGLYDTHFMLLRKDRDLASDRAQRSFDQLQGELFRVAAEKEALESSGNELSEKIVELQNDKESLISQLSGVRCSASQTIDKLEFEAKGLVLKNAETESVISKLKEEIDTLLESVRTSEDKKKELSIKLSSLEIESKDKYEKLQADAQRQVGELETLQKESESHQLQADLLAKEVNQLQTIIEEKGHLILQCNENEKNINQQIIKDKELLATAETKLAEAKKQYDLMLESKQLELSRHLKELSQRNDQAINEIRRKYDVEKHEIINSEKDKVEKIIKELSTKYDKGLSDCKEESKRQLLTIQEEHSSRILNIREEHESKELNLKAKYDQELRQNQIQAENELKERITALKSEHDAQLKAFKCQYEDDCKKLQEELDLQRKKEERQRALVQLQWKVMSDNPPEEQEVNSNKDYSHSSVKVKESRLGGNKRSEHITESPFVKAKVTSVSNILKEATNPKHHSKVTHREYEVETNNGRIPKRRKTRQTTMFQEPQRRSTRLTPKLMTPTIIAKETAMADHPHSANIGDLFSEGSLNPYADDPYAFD
# B1: ASY3 (protein, UniProt Q0WR66 1-793)
# chain: MSDYRSFGSNYHPSSQSRKISIGVMADSQPKRNLVPDKDDGDVIARVEKLKSATVTELQANKKEKSDLAAKQRNSAQVTGHVTSPWRSPRSSHRKLGTLESVLCKQTSSLSGSKGLNKGLNGAHQTPARESFQNCPISSPQHSLGELNGGRNDRVMDRSPERMEEPPSAVLQQKVASQREKMDKPGKETNGTTDVLRSKLWEILGKASPANNEDVNSETPEVEKTNFKLSQDKGSNDDPLIKPRHNSDSIETDSESPENATRRPVTRSLLQRRVGAKGVQKKTKAGANLGRKCTEQVNSVFSFEEGLRGKIGTAVNSSVMPKKQRGRRKNTVVKCRKAHSRKKDEADWSRKEASKSNTPPRSESTETGKRSSSSDKKGSSHDLHPQSKARKQKPDISTREGDFHPSPEAEAAALPEMSQGLSKNGDKHERPSNIFREKSVEPENEFQSPTFGYKAPISSPSPCCSPEASPLQPRNISPTLDETETPIFSFGTKKTSQGTTGQASDTEKRLPDFLEKKRDYSFRRESSPEPNEDLVLSDPSSDERDSDGSREDSPVLGHNISPEERETANWTNERSMLGPSSVKRNSNLKGIGRVVLSPPSPLSKGIDKTDSFQHCSEMDEDEDEGLGRAVALFAMALQNFERKLKSAAEKKSSEIIASVSEEIHLELENIKSHIITEAGKTSNLAKTKRKHAETRLQEQEEKMRMIHEKFKDDVSHHLEDFKSTIEELEANQSELKGSIKKQRTSHQKLIAHFEGGIETKLDDATKRIDSVNKSARGKMLQLKMIVAECLRDD
# B2: PCH2 (protein, UniProt Q8H1F9 1-467)
# chain: T1 chain
# B3: ZYP1b, P61430 1-856 (protein)
# chain: T2 sequence
# B4: ZYP1a (protein, UniProt Q9LME2 1-871)
# chain: MQKLGFPAMKSLDKPRSLSGSANMYSFSNRKPPDSVSSGSFSNLKLTAEKLVKDQAAMRTDLELANCKLKKSMEHVYALEEKLQNAFNENAKLRVRKKEDEKLWRGLESKFSSTKTLCDQLTETLQHLASQVQDAEKDKGFFETKFSTSSEAIDSLNQQMRDMSLRLDAAKEEITSRDKELEELKLEKQQKEMFYQTERCGTASLIEKKDAVITKLEASAAERKLNIENLNSQLEKVHLELTTKEDEVKDLVSIQEKLEKEKTSVQLSADNCFEKLVSSEQEVKKLDELVQYLVAELTELDKKNLTFKEKFDKLSGLYDTHIMLLQKDRDLALDRAQRSFDNLQGELFRVAATKEALESAGNELNEKIVELQNDKESLISQLSGLRCSTSQTIDKLESEAKGLVSKHADAESAISQLKEEMETLLESVKTSEDKKQELSLKLSSLEMESKEKCEKLQADAQRQVEELETLQKESESHQLQADLLAKEVNQLQTVIEEKGHVILQCNENEKQLNQQIIKDKELLATAETKLAEAKKQYDLMLESKQLELSRHLKELSQRNDQAINEIRRKYDVEKHEIINSEKDKVEKIIKDLSNKFDKELSDCKEESKRQLLTIQEEHSSLILSLREEHESKELNLKAKYDQELRQSQIQAENELKERITALKSEHDAQLKAFKCQYEDDCKKLQEELDLQRKKEERQRALVQLQWKVMSDNPPEEQEVNSNKNYSISKDSRLGGSKRSEHIRVRSDNDNVQDSPFVKAKETPVSKILKKAQNVNAGSVLSIPNPKHHSKVTHREYEVETNNGRVTKRRKTRNTTMFEEPQRRRTRATPKLTPQSIAKGTGMTSHARSANIGDLFSEGSLNPYADDPYAFD
# B5: ZYP1b (protein, UniProt P61430 1-856)
# chain: T2 sequence
# How the values were obtained:
# Experiment in all cases: two-hybrid; Clontech Matchmaker Gold; pGADT7 (AD) and pGBKT7 (BD) fusions co-transformed into Y2H Gold yeast; serial dilutions on DDO, TDO (−His/−Leu/−Trp, screens for weak interactions) and QDO (−His/−Ade/−Leu/−Trp, screens for strong interactions); 3–5 days at 30 °C
# ASY3 (A. thaliana) = ASY3 (A. thaliana) (UniProt Q0WR66)
# PCH2 (A. thaliana) = PCH2 (A. thaliana) (UniProt Q8H1F9)
# [1] = target: T1, PCH2 (A. thaliana), Q8H1F9; conditions: remark: other sources report otherwise
# ZYP1a (A. thaliana) = ZYP1a (A. thaliana) (UniProt Q9LME2)
# ZYP1b (A. thaliana) = target: T2, ZYP1b (A. thaliana)
binder,measurement,setting,value
B1,binding,ASY3 (A. thaliana),binds
B2,binding,PCH2 (A. thaliana),binds
B3,binding,[1],binds
B4,binding,ZYP1a (A. thaliana),binds
same,binding,ZYP1b (A. thaliana),no binding
B5,binding,ZYP1b (A. thaliana),binds weakly
